# From the supplement of paper PMC10126150
# Values marked as one replicate rest on one cluster of the flow cell; about a third of the high ones do not repeat.
# Tested on: ATP
# Assay: switch fluorescence ratio, 500 uM ATP over buffer (Cy3 cluster intensity, sum of 5 cycles each) (fold (ratio)); higher = stronger signal-on switching upon ATP binding; sequences stand for … in TCGTCGGCAGCGTCAGATGTGTATAAGAGACAGTTTTTTTTTTTTTTTTTTTTTTTTT…TC
# Details: aptamer strand: ATP DNA aptamer (quencher-CACCTGGGGGAGTATTGCGGAGGAAGG + anchor), 100 nM annealed; ATP concentration: 500 uM; one replicate
# Outline: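 After annealing to 100 nM quencher-labelled ATP aptamer, Cy3-labelled switching-strand clusters on a modified Illumina MiSeq flow-cell were imaged in selection buffer. A second image followed after 15 min with 500 uM ATP at 22 °C, and five such buffer/ATP cycles were done, each separated by NaOH stripping and re-annealing. The fluorescence ratio, averaged per switch-domain sequence, is summed target-cycle over summed buffer-cycle Cy3 intensity per cluster, with clusters outside 100-1000 RFU excluded.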
# 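Also: ATP exposure 15 min at 22 °C before imaging.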
row,Sequence,switch fluorescence ratio
1,TGATGAATCT,1.05
2,TGATGAATTT,0.958
3,TGATGACATG,0.935
4,TGATGCCGGG,0.931
5,TGATGCGTGC,1.03
6,TGATGCTTGG,1
7,TGATGGAGGT,0.994
8,TGATGTAATC,0.988
9,TGATGTCGTT,1.14
10,TGATGTGCAC,0.913
11,TGATGTTAT,1.01
12,TGATGTTTTA,0.975
13,TGATTAG,0.984
14,TGATTCATGC,1.01
15,TGATTCGTGT,0.992
16,TGATTCGTTA,0.998
17,TGATTGACTT,1.06
18,TGATTGAGAC,1.06
19,TGATTGTGTC,1.05
20,TGATTTAAGA,1
21,TGATTTCAGC,1.03
22,TGATTTCGTC,0.991
23,TGCAAAAGGA,0.938
24,TGCAAAAGTT,0.999
25,TGCAAACAGC,1.01
26,TGCAAAGGTT,1.03

row,Sequence,switch fluorescence ratio
1,TGCAAAGTGC,1.06
2,TGCAACAAGA,1.06
3,TGCAACGCAG,1.03
4,TGCAACTATA,1.02
5,TGCAACTGGG,1.07
6,TGCAAGCGGA,0.965
7,TGCAAGTAGT,1.04
8,TGCAAGTG,0.963
9,TGCAATTAAG,1.69
10,TGCAATTCTG,1.17
11,TGCACAGACC,1.04
12,TGCACATCGA,0.951
13,TGCACTGCGA,1.06
14,TGCACTGGCT,1.09
15,TGCACTGGGG,1.06
16,TGCAGAAATC,1.18
17,TGCAGAG,1.01
18,TGCAGATTC,1.05
19,TGCAGCGAGC,1.26
20,TGCAGCTTTG,1.02
21,TGCAGGACAG,0.963
22,TGCAGGATGT,1.02
23,TGCAGGCCGT,0.978
24,TGCAGGTGG,1.06
25,TGCAGTCGTA,1.04
26,TGCAGTTTGC,1.08

row,Sequence,switch fluorescence ratio
1,TGCATAATGC,1.02
2,TGCATATCTA,1.01
3,TGCATCAGCG,0.981
4,TGCATCCCCG,1.41
5,TGCATGAGAC,1.06
6,TGCATGATAC,2.97
7,TGCATTATCG,1.05
8,TGCATTGAG,0.97
9,TGCCAAGGAG,0.973
10,TGCCACTTCC,1.85
11,TGCCAGAATA,0.992
12,TGCCATTTA,1
13,TGCCCACTTT,0.994
14,TGCCCGAGCC,1.13
15,TGCCCGTGCT,1.07
16,TGCCGAAGAC,1.31
17,TGCCGGAGTG,1.01
18,TGCCGGATCC,0.937
19,TGCCGGGGCA,0.997
20,TGCCGGGTTT,0.99
21,TGCCTCGGCT,1.09
22,TGCCTGAGGT,1.02
23,TGCCTGATCT,1.05
24,TGCCTTTCTT,1.1
25,TGCGAAACGC,1.02
26,TGCGAACGTT,1.04

row,Sequence,switch fluorescence ratio
1,TGCGACTCCA,1.22
2,TGCGAGGGAG,0.932
3,TGCGATCAGT,0.985
4,TGCGATGGGA,1.01
5,TGCGATTTA,0.98
6,TGCGCCCTGC,0.954
7,TGCGCGACAA,1.21
8,TGCGCGACCG,1.02
9,TGCGCGTCTT,1.04
10,TGCGCTGTGT,1.02
11,TGCGGAATAA,1.09
12,TGCGGCAAGT,0.987
13,TGCGGCACGG,1.02
14,TGCGGCATGA,1.03
15,TGCGGCCGAG,0.998
16,TGCGGGTGAG,1.05
17,TGCGGTAGGA,1.01
18,TGCGGTCAAG,0.998
19,TGCGGTCTGA,0.993
20,TGCGGTTCAG,1
21,TGCGGTTTC,1.02
22,TGCGTAACCT,1.75
23,TGCGTAAGGT,1
24,TGCGTCCCAC,1.03
25,TGCGTCCCCT,1.02
26,TGCGTCTGAA,1.05

row,Sequence,switch fluorescence ratio
1,TGCGTGAGAG,1.07
2,TGCGTGAGTA,1.04
3,TGCGTTACAT,1.03
4,TGCGTTATAT,2.17
5,TGCTACATTG,0.989
6,TGCTAGACC,1.04
7,TGCTAGATGG,0.972
8,TGCTAGCAGA,0.977
9,TGCTATGCTG,0.981
10,TGCTATTCCG,1.02
11,TGCTCACATG,1.01
12,TGCTCCGGGT,1.02
13,TGCTCCTGAC,1.98
14,TGCTCTTTCT,0.962
15,TGCTGAAATA,1.01
16,TGCTGATTTT,0.99
17,TGCTGCTGCG,1
18,TGCTGGACGT,1.01
19,TGCTGGTGTT,1.01
20,TGCTGGTTA,1.02
21,TGCTGTAATC,0.961
22,TGCTTAAATA,1.02
23,TGCTTAACGG,0.948
24,TGCTTACTAT,0.976
25,TGCTTATTGC,1
26,TGCTTCGTTG,1.16

row,Sequence,switch fluorescence ratio
1,TGCTTGATCG,0.978
2,TGCTTTCTG,1.02
3,TGCTTTGAGG,1.01
4,TGCTTTGTTT,1.01
5,TGGAAAAGGC,1.01
6,TGGAAAGTTG,0.997
7,TGGAACAATG,0.964
8,TGGAACCGCC,1.76
9,TGGAACTGAA,0.977
10,TGGAAGACGA,0.96
11,TGGAAGGAAC,1
12,TGGAATAAGC,0.978
13,TGGACACCAG,0.986
14,TGGACAGTC,1.06
15,TGGACGAAGA,0.98
16,TGGACTATT,1
17,TGGACTGTGT,1
18,TGGAGACCAG,0.994
19,TGGAGAGACT,1.06
20,TGGAGATTCT,0.959
21,TGGAGGCATG,1.04
22,TGGAGGGCAA,1.03
23,TGGAGGTCGT,1.03
